The campaign covered roughly 52,000 compounds. About 4,300 (8.3%) were called active. Rule as the data show it: active = survival mostly below about 52% (no sharp cut-off); inactive = mostly above about 56%. Some of the results follow.

These results are taken from PubChem BioAssay AID463173 (ICCB-Longwood Screening Facility, Harvard Medical School, 2010).

The test has as its system DeltatarO mutant. Briefly: growth inhibition of S. aureus wild type versus tarO mutant, primary screen, teichoic acid synthesis inhibitors, RN4220, OD600 (AID 463173). The note with it: OD600, 18 h, active compounds read low, screened at 18.75 µg/mL (by protocol).
Turning to `O=C(NC1CC(=O)N(c2ccccc2)C1)c1cccs1` (stereo unspecified), the survival was inactive: 94%. Consider `CCOc1ccc2nc(NC3=NCCC(=O)N3)nc(C)c2c1`, for which the survival is inactive: 80%. Turning to `Cc1ccc2[nH]c3nc(NN)nnc3c2c1`, the survival is inactive: 77%. With `Cc1cccc(C(=O)Nc2nc3c(s2)CCCC3)c1`, the survival was inactive: 67%. Regarding `COc1ccc(-c2nc(CCNC(=O)Cc3ccc(F)cc3)cs2)cc1`, the survival was inactive: 126%. For `c1ccc(CNc2ncnc3[nH]ncc23)cc1`, the survival was inactive: 92%. Consider `CCOC(=O)N1CCc2c(sc3c2c(=O)n(CCc2ccccc2)c(=O)n3Cc2ccc(C)cc2C)C1`, for which the survival is inactive: 71%.

For `CC(=O)N1c2ccc(S(=O)(=O)NCCc3cccc(C)c3)cc2CC1C` (stereo unspecified), the survival was inactive: 84%.

As for `Cc1ccc(C(=O)N/C(=C/c2ccco2)C(=O)Nc2nccs2)cc1`, the survival is inactive: 80%. For `CCn1c(=O)c(=O)n(CC)c2cc(N3CCCCC3)c(NC(=O)c3cccc(OC)c3)cc21`, the survival was inactive: 85%. `CCOC(=O)c1cccc(NC(=O)N2Cc3ccccc3Oc3ncccc32)c1`: the survival was inactive: 66%. In the case of `COc1ccc(C2CC(=O)C(C=NC3CCCC3)=C(O)C2)cc1` (stereo unspecified), the survival was inactive: 73%. For `CCOc1cccc(NC(=O)CSc2ncc(-c3ccc(Cl)cc3)[nH]2)c1`, the survival was active: 39%. In the case of `COc1ccc(-n2c(=O)c3c4c(sc3n(Cc3ccccc3)c2=O)CCC4)c(OC)c1`, the survival was inactive: 50%. With `COc1ccc(-c2cc(C(F)(F)F)nc(NCc3ccccc3)n2)cc1OC`, the survival was active: 42%. For the molecule `COc1cccc(CN2c3ccccc3-c3nc(SCC(=O)Nc4cccc(C)c4)ncc3S2(=O)=O)c1`, the survival was inactive: 50%. On to `CCOC(=O)C1CCN(C(=O)Cc2cccc3ccccc23)CC1`, for which the survival was inactive: 82%. As to `O=C1C(=O)N(C2CCN(C(=O)c3ccc(F)cc3)CC2)CCN1Cc1ccc(F)cc1`, the survival was inactive: 74%.

With `CCc1nnc2c3ccccc3nc(Nc3ccc(F)cc3C)n12`, the survival was active: 39%.

For `Cc1cccc(OC(C)C(=O)N2CCC(c3nc4ccccc4o3)CC2)c1C` (stereo unspecified), the survival was inactive: 75%.

For `CCc1ccc2oc(-c3cccc(NC(=O)c4ccc(-c5cccc([N+](=O)[O-])c5)o4)c3)nc2c1`, the survival is inactive: 58%.

Turning to `CCOc1ccc(Br)cc1C1C(C(=O)Nc2ccccc2OC)=C(C)Nc2nnnn21` (stereo unspecified), the survival is inactive: 66%. The figure for `Cc1cc(C)cc(OCCOCCn2c(-c3ccc(Cl)cc3)nc3ccccc3c2=O)c1` is active: 43%; for `CN1CCC(OC(=O)Cc2ccc(Cl)cc2)CC1` it is inactive: 103%; for `CCOc1ccc(-n2c(-c3ccc(OC)cc3)cc3c2CC(C)(C)CC3=O)cc1` it is active: 15%.

For `C=Cc1ccc(CSc2nc(-c3ccc(Cl)cc3)nc3c2Cc2c(CO)cnc(C)c2O3)cc1`, the survival is inactive: 70%. As for `CCCCN(CCCC)S(=O)(=O)c1ccc(NC(=O)c2c(-c3ccccc3)noc2C)cc1`, the survival is inactive: 60%.

Consider `Cc1ccc(NC(=O)CC2Sc3ccccc3NC2=O)c(C)c1` (stereo unspecified), for which the survival is inactive: 137%. The figure for `CCN(C(=O)c1cc(S(=O)(=O)N2CCCCC2)c[nH]1)c1ccc(OC)cc1` is inactive: 77%; for `COc1ccc(-c2nc(SCC(=O)NC3CCCC3)c(-c3ccccc3)[nH]2)cc1OC` it is inactive: 65%. Under `O=C(N1CCCCC1)N1c2ccccc2C=Cc2ccccc21` stands inactive: 99%. For `CCOC(=O)C1CCN(C(=O)c2ccc3c(c2)sc2nc(-c4ccc(OCC)cc4)cn23)CC1`, the survival is inactive: 69%. Take `Cc1ccc(NC(=O)Cn2ccn(Cc3ccc(Cl)cc3)c(=O)c2=O)cc1C`: the survival is inactive: 111%. Consider `CC(=O)c1cccc(-n2c(CCC(=O)O)ccc2-c2ccccc2)c1`, for which the survival was inactive: 74%.

As to `COc1ccc(OC)c(Nc2cc(C(=O)NCc3ccccc3)c3ccccc3n2)c1`, the survival is inactive: 104%. Consider `CCC(=O)Nc1nc(-c2ccc3c(c2)CCN3C(C)=O)cs1`, for which the survival was inactive: 95%. Under `Cc1ccc(-n2ncc3c(Nc4ccc5c(c4)OCCO5)ncnc32)cc1C` stands inactive: 85%; under `CCOc1ccccc1C(=O)N1CCc2cc(OC)c(OC)cc2C1COc1ccc2c(C)cc(=O)oc2c1` (stereo unspecified), inactive: 66%; under `Cn1c(NCc2ccccc2F)nc2ccccc21`, inactive: 93%. The figure for `COc1cc(Cl)c(C)cc1NC(=O)CSCc1nc(-c2ccc(OC)c(OC)c2)no1` is inactive: 102%; for `Cc1ccc(C)c(Cn2cc(CCC(=O)NC3CCCCC3)c3ccccc32)c1` it is inactive: 86%; for `N=c1n(CCO)c2ccccc2n1CCOc1ccc(F)cc1` it is active: 40%. Consider `CC(C)c1nnc(SCC(=O)NC(C)(C)C)n1C`, for which the survival is inactive: 89%. As for `COc1ccc(-c2cc(C(=O)Oc3ccc(Cl)cc3)c3ccccc3n2)cc1`, the survival was active: 49%.

Consider `Cc1cc(C)cc(N(CC(=O)Nc2ccc(C(F)(F)F)cc2)S(=O)(=O)c2c(C)[nH]c(=O)[nH]c2=O)c1`, for which the survival was inactive: 48%. Under `CCOc1ccc(NC(=O)NC(CC)Cn2nnc3ccccc3c2=O)cc1` (stereo unspecified) stands inactive: 107%; under `Cc1ccc(OCCSc2nc3ccccc3n2CCC(=O)O)cc1C`, active: 47%.

As for `CCN1CCN(C(c2ccc(Cl)cc2)c2c(O)cc(C)n(CCOC)c2=O)CC1` (stereo unspecified), the survival was inactive: 75%. With `Cc1nc2ncnn2c(C)c1CCC(=O)NCc1ccc(Cl)cc1`, the survival was inactive: 92%. On to `O=C(CSc1ncc(S(=O)(=O)c2ccc(Br)cc2)c(=O)[nH]1)NCc1ccccc1Cl`, for which the survival was inactive: 60%. As to `Cc1ccccc1NC(=O)c1ccc(NC(=O)N2CCSc3ncccc32)cc1`, the survival was active: -2%. With `COc1ccc(OC)c(-n2c(=O)[nH]c3cc(C(=O)NCCc4ccc(OC)c(OC)c4)ccc3c2=O)c1`, the survival is inactive: 76%. `COc1cccc(NC(=O)c2sc(-n3nc(C)c(Cc4ccccc4Cl)c3C)nc2C)c1`: the survival was inactive: 94%. As to `CC1CCN(S(=O)(=O)c2ccc3c(c2)N(CC(=O)NCc2ccccc2Cl)C(=O)CO3)CC1`, the survival is inactive: 116%. Regarding `COc1ccc(NCc2nc3ccccc3n2CCOc2ccccc2C)cc1`, the survival was active: 32%. The figure for `Cc1cc(N2CCCC2)nc(SCC(=O)c2ccccc2)n1` is inactive: 77%; for `COc1cccc(CNC(=O)C2CCC(CNS(=O)(=O)c3cccs3)CC2)c1` (stereo unspecified) it is inactive: 74%. Turning to `O=c1c(S(=O)(=O)c2ccccc2)cn(Cc2ccc(F)cc2)c2cc(N3CCCC3)c(F)cc12`, the survival is inactive: 74%. `Cc1ccc(OCc2cc(=O)n3c4c(sc3n2)CCCC4)c(C)c1`: the survival was inactive: 88%. As to `CC(=O)NC1C(OC2=CC3OC(=O)CC(C)=C3C=C2)OC(CO)C(O)C1O` (stereo unspecified), the survival is inactive: 77%. As to `CCCC(=O)N(c1ccc2oc3c(c2c1)CCCC3)S(=O)(=O)c1ccc(CC)cc1`, the survival was active: 39%.

As to `O=C(NCCS(=O)(=O)N1CCN(c2ccccc2F)CC1)c1cc(=O)c2ccccc2o1`, the survival was inactive: 71%. Under `O=C(Nc1ccc(F)cc1)c1ccc(-n2cnc3cccnc32)cc1` stands inactive: 90%; under `O=C(NCCc1ccc(Cl)cc1)c1ccc(CS(=O)(=O)Cc2ccc(F)cc2)o1`, inactive: 92%; under `COC(=O)c1c(SC)nc2ccccc2c1OCc1cccc(C)c1`, inactive: 93%.

Turning to `S=c1[nH]nc(CCn2c3ccccc3c3ccccc32)n1-c1ccccc1`, the survival is inactive: 69%. Under `Cc1ccc(N(C)C(=O)Cn2nc(Cc3ccncc3)c3ccccc3c2=O)cc1C` stands inactive: 84%; under `Cc1ccc(CNS(=O)(=O)c2ccc(F)c(C(=O)Nc3ccc(C)c(F)c3)c2)cc1`, active: 46%; under `COc1ccccc1CCNC(=O)c1cc2c(=O)n3cccc(C)c3nc2n1C`, inactive: 65%. In the case of `CNC(=O)C1CCC(Cn2c(=O)c3sccc3n(Cc3ccccc3)c2=O)CC1` (stereo unspecified), the survival is inactive: 86%. For the molecule `Cc1csc2nc(COC(=O)c3ccccc3NC(=O)c3ccccc3Cl)cc(=O)n12`, the survival was inactive: 68%. For `CCc1ccc(NC(=O)N2CC=C(c3c[nH]c4ccccc34)CC2)cc1`, the survival is active: 39%. For the molecule `CCOc1ccc(-c2nc(Cn3c(=O)cc(-c4ccccc4)c4c(C)nn(C)c43)c(C)o2)cc1OC`, the survival was inactive: 126%. For `COc1cc(OC)c(NC(=O)C(C)n2c(=O)cc(-c3ccccc3)c3c(C)nn(C)c32)cc1Cl` (stereo unspecified), the survival was inactive: 83%. Under `FC(F)(F)Oc1ccc(-n2[nH]nnc2=S)cc1` stands inactive: 83%. Turning to `Cc1ccc(CNC(=O)C2CCN(c3nn4cc(-c5ccc(F)cc5)nc4s3)CC2)cc1`, the survival is inactive: 87%. As to `CCN(CC)c1ccc(NC(=O)CCS(=O)(=O)c2cccc3nsnc23)c(C)c1`, the survival was active: 44%.

As for `CCC(CC)C(=O)Nc1cccc(-c2nc3cccnc3s2)c1`, the survival was inactive: 80%. The figure for `COc1cccc(COC(=O)c2nn(-c3ccccc3)nc2N)c1` is active: 15%; for `Cc1cccc(S(=O)(=O)c2cn(Cc3ccccc3)c3cc(N4CCC(C)CC4)c(F)cc3c2=O)c1` it is inactive: 91%. Under `CCn1c(Oc2ccc(F)cc2F)nc2c1c(=O)n(C)c(=O)n2C` stands inactive: 72%. On to `CCc1cc2c(cc3c(=O)n(CC(=O)NCc4cccc(Cl)c4)nc(CC)n32)s1`, for which the survival is inactive: 91%. Take `CCC1=Nc2cc(C(=O)NCCc3ccccc3)ccc2Sc2ccc(Cl)cc21`: the survival was inactive: 74%. On to `COc1ccc(Nc2cc(C(=O)NCCCN(C)Cc3ccccc3)c3ccccc3n2)cc1OC`, for which the survival is inactive: 108%.

Turning to `COc1cccc(CNC(=O)C(=O)NCC(c2cccs2)S(=O)(=O)c2cccs2)c1` (stereo unspecified), the survival is inactive: 94%.

`COc1ccc(-n2nc3cc(C)c(NC(=O)COc4cccc(C)c4)cc3n2)cc1`: the survival was inactive: 56%. The figure for `Cc1cc(S(=O)(=O)Nc2cc3c(cc2C)n(C)c(=O)c(=O)n3C)ccc1F` is inactive: 84%; for `CCSC1=NC2(CCN(C(=O)NC3CCCCC3)CC2)N=C1c1ccc(C)cc1` it is inactive: 68%; for `Cc1ccccc1NC(=O)CSc1ncc2c(n1)-c1ccccc1N(C)S2(=O)=O` it is inactive: 102%. The figure for `C1CCC2(C1)OCC1(CO2)COC2(CCCC2)OC1` is inactive: 94%; for `CCOc1ccccc1NC(=O)c1c(NC(=O)C(C)Oc2cccc(Cl)c2)sc2c1CCCCC2` (stereo unspecified) it is inactive: 64%.
